# Some of the results follow. Sequences were assembled here from the parent chain. Values near 0.05 are background.
# B1: TEV protease; numbered along this chain (parent)
# chain: MGESLFKGPRDYNPISSSICHLTNESDGHTTSLYGIGFGPFIITNKHLFRRNNGTLVVQSLHGVFKVKDTTTLQQHLVDGRDMIIIRMPKDFPPFPQKLKFREPQREERICLVTTNFQTKSMSSMVSDTSCTFPSGDGIFWKHWIQTKDGQCGSPLVSTRDGFIVGIHSASNFTNTNNYFTSVPKNFMELLTNQEAQQWVSGWRLNADSVLWGGHKVFMVKPEEPFQPVKEATQL
# Variants of: B1
# Assay: raw area under fraction-flipped curve 0-4 h after induction (AUC4h, not background-subtracted), DNA-recorder readout of cleavage of the substrate (dimensionless); higher = more cleavage of the substrate by the protease variant
# Conditions: temperature: 34 °C; time window: 0-4 h after rhamnose induction
# Protocol: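 In vivo DNA recorder in E. coli TOP10(DE3) ΔrhaA at 34 °C. Each TEVp single-site mutant (parent TEVp 0) is paired with a single-site variant of the 7-mer TEVs (canonical ENLYFQ|S). The substrate sits between flexible linkers in a Bxb1-sfGFP-TEVs-SsrA fusion, so cleavage stabilises Bxb1 and speeds flipping of a recombination array, read by NGS. The value is the raw area under the fraction-flipped curve over 0-4 h after rhamnose induction (AUC4h), with ≥20 reads per time point. It is not background-subtracted; inactive controls average about 0.047.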
# 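Note: Bxb1 expression induced with 0.2% (w/v) L-rhamnose at OD600 near 0.5, cultures sampled hourly, flipped fraction per protease–substrate barcode pair counted by paired-end Illumina sequencing.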
Variant,area with substrate CNLYFQS,area with substrate DNLYFQS,area with substrate GNLYFQS,area with substrate HNLYFQS,area with substrate INLYFQS,area with substrate KNLYFQS,area with substrate LNLYFQS,area with substrate MNLYFQS,area with substrate PNLYFQS,area with substrate SNLYFQS,area with substrate WNLYFQS,area with substrate YNLYFQS,area with substrate NNLYFQS,area with substrate RNLYFQS,area with substrate TNLYFQS,area with substrate VNLYFQS,area with substrate FNLYFQS,area with substrate QNLYFQS
Y179E,0.0591,0.0878,0.0636,0.0525,0.0551,0.0523,0.0663,0.0484,0.063,0.0584,0.0566,0.0647,–,–,–,–,–,–
Y179S,0.0519,0.0689,0.0544,0.0623,–,–,–,0.0471,0.0551,0.0541,0.0533,–,0.0563,0.0534,0.0644,0.0441,–,–
V67A,0.0573,0.0789,–,0.0553,–,0.0595,0.053,0.0521,0.0623,–,0.0486,0.0567,–,0.0214,0.0548,–,–,–
S26Q,0.0409,0.0668,0.0646,0.0527,–,0.0438,–,0.0575,0.0623,0.0693,0.0609,–,0.0706,–,–,–,0.0612,–
M188N,0.0771,0.0854,–,0.0551,–,–,–,0.0546,0.077,0.0563,0.0625,–,–,–,0.0512,–,–,–
P14H,0.0673,0.083,0.0866,–,0.0649,0.0678,0.0715,0.0633,0.0639,0.0659,0.0672,0.0584,0.0636,–,0.0627,–,–,0.0751
V126C,0.0811,0.0645,–,–,0.0751,0.0639,–,–,–,–,0.064,–,–,–,0.064,–,–,–
S169D,0.0491,0.0618,–,0.0774,–,0.086,0.0703,0.0492,0.0633,–,0.0486,0.0483,0.062,–,0.0528,0.0667,0.043,–
S169I,0.0564,0.0655,–,–,0.0594,0.0552,0.0586,0.0554,0.0571,0.0722,0.0626,–,0.0674,0.0448,0.0609,–,0.0661,0.0524
K148C,0.0944,0.0656,0.0557,0.0555,0.0482,0.0706,0.0656,0.0565,0.0689,–,0.0495,0.0622,–,–,0.0582,0.0692,–,–
Q59G,0.0718,0.0956,0.0589,0.0649,0.055,–,–,–,0.0659,0.0536,–,0.0712,0.0595,–,0.0641,–,–,–
N175L,0.0552,0.064,0.0587,–,0.0981,–,0.061,0.0594,0.059,0.0268,–,0.0719,0.0584,–,0.0505,–,–,–
I164Q,0.0642,0.0652,0.0538,0.0578,0.0265,0.0622,0.0632,0.0545,–,0.068,0.0416,0.047,0.0647,–,0.059,–,–,0.0683
C111D,0.073,0.0824,0.0498,0.0622,0.0639,0.0604,0.0579,0.0592,0.0573,–,0.053,0.0643,–,–,–,0.0349,0.057,–
S158N,0.059,0.075,0.043,0.0708,0.0617,0.041,–,0.0574,0.0559,0.0315,0.0516,0.0505,0.0638,–,0.067,0.0488,0.055,–
R102M,0.0587,0.0474,0.0251,0.0594,0.0474,0.0618,0.0607,0.088,0.0465,–,–,0.0536,0.0477,–,0.0491,0.0495,0.0594,–
N116P,0.0809,0.0766,0.073,0.0656,0.0877,0.0719,0.0524,0.0768,0.0672,0.0105,0.0561,0.0595,0.0561,–,0.0649,–,0.0696,–
S135F,0.0681,0.0577,–,0.072,0.0392,–,0.0597,0.0589,0.0478,0.0671,0.0628,0.0595,0.07,0.0714,0.0641,0.0561,0.0633,–
D11P,0.0558,0.0474,–,0.0633,0.0602,0.069,0.0607,0.0674,0.0606,0.0704,0.064,0.067,0.0514,–,0.0471,0.0586,–,–
V113M,0.0692,0.0698,0.0607,0.0426,0.0681,0.0628,0.0736,0.0471,–,0.0606,–,0.0598,0.0587,–,0.056,0.0622,–,–
T23E,0.0708,0.0684,0.0657,0.0614,–,–,0.0458,0.0445,0.0725,0.0556,0.0555,0.0746,0.0601,0.0712,0.0618,–,0.0445,–
I110N,0.0463,0.0393,0.0524,0.0647,0.0494,0.0535,–,–,–,0.0556,0.0593,0.0472,0.042,–,–,0.0487,0.0247,–
N53Q,0.0676,0.0687,–,0.054,0.0686,0.0668,0.0795,0.0799,0.0567,–,0.0648,0.0654,–,0.0515,0.061,–,0.0906,–
F163I,0.049,0.0676,0.0495,0.0513,–,0.0754,–,–,–,–,0.0585,–,0.0548,–,0.0603,–,–,–
I43D,0.0355,0.0526,0.0379,0.0554,0.0385,0.0447,0.0311,0.0325,0.0389,0.0453,0.0354,0.0334,–,–,0.0178,0.0434,0.041,0.0501
G37S,0.0576,0.0597,–,0.0389,–,–,–,–,0.0662,–,–,–,0.0519,0.044,0.0547,0.057,0.0606,–
P225K,0.0604,0.0707,0.0708,0.0715,0.0638,0.0664,0.0608,0.0658,0.0748,–,0.0759,0.0844,0.0637,–,0.066,–,0.057,0.0708
F226G,0.0643,0.118,–,0.0424,0.0844,0.0583,0.0334,–,0.0624,0.0634,0.0667,0.066,0.0718,–,0.0502,0.0791,–,–
